The campaign covered roughly 120,000 compounds. About 5,300 (4.4%) were called active. Inconclusive results, whose numbers are uncertain, are shown with a selection of clear calls. Calls come from the whole dose curve; as a rule, active = well fitted inhibition curve with a large enough effect; inconclusive = small, poorly fitted or top-dose-only effect; inactive = no such curve, though single readings can be large or run the other way. Potencies beside an inconclusive call are fits to weak or partial responses and may not hold up.
test: qHTS Primary assay for Inhibitors of Plasmodium falciparum Dd2 growth in vitro; note: nearly all actives have a fitted effect of over 65% in size; conditions: P. falciparum Dd2 growth, SYBR Green, 72 h; series mostly up to 28.9 µM
In short: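 Readout: SYBR Green fluorescence, 485 nm excitation, 535 nm emission, after ~16 h lysis at 37C. Before that, Dd2-infected red cells (2.5% hematocrit) grew 72 h with compound, 29 uM top final concentration.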
Potency is the fitted concentration of half-maximal effect; tags give direction and shape of the fitted curve.

SMILES	Potency
O=C(Cc1ccccc1)N1CCC(Cc2nc(-c3cccnc3)n[nH]2)C1 (centres undefined)	inactive
O=C(CCn1ccn2nc3c(c2c1=O)CCCC3)NCc1ccc(F)c(Cl)c1	inconclusive: 11.2 µM [inhibitor, single point]
COc1ccc(NC(=O)NC[C@H]2C[C@@H]3CCN2C[C@@H]3c2cc(-c3ccccc3)nn2C)cc1	inconclusive: 5.62 µM [inhibitor, partial curve, poor fit]
Cc1nc2c(C(=O)NCCCN(CC(C)C)CC(C)C)cnn2c(C)c1Cc1c(F)cccc1Cl	inconclusive: 17.8 µM [inhibitor, single point]
COc1ccc(NC(=O)c2oc3ccc(S(=O)(=O)N4CCCCC4)cc3c2C)cc1	inconclusive: 11.2 µM [inhibitor, single point]
CCOc1ccc(CNC(=O)C2Cc3ccccc3N2C(=O)CC)cc1OC (centres undefined)	inactive
CN1C(=O)c2cccn2CC1CNC(=O)c1[nH]nc2c1COc1ccccc1-2 (centres undefined)	active: 8.91 µM
Cc1nn2c(c1-c1ccccc1OCc1ccccc1)N(Cc1ccc(OCC(=O)O)cc1)CCC2	inconclusive: 3.16 µM [inhibitor, single point]
CCn1ncc(C(=O)N2CC[C@@H]3CN(S(C)(=O)=O)[C@@H]3C2)c1C	inactive
O=C(NCc1ccccn1)c1ccc2c(c1)CC(=O)N2Cc1ccc(F)cc1	inconclusive: 3.98 µM [inhibitor, single point]
CCOC(=O)c1c(-c2ccccc2)oc2ccc(NS(=O)(=O)c3cc(C)c(C)cc3C)cc12	inconclusive: 0.158 µM [inhibitor, partial curve, poor fit]
CN(Cc1cccn1C)Cc1ccnn1C	inactive
CC(=O)c1cccc(NC(=O)c2oc3c(c2C)-c2nn(Cc4ccc(Cl)cc4)cc2CC3)c1	inconclusive: 17.8 µM [inhibitor, single point]
Cc1ccc(C(=O)N2CCC(Oc3ccc(C(=O)N(C)C)cn3)CC2)s1	inactive
OCc1ccc(CN2C[C@H](O)C[C@H]2c2nc(-c3ccccc3)no2)o1	inconclusive: 8.91 µM [inhibitor, partial curve, poor fit]
O=C1NC[C@@H](CCC(=O)N2CCC(O)CC2)N2C[C@@H](NCc3ccccc3)C[C@@H]12	inactive
O=C1[C@H]2CN(Cc3ccc(C(F)(F)F)cc3)C[C@H]2C(=O)N1Cc1ccc2c(c1)OCO2	inactive
O=C(CC1CCCCC1)NC(Cc1ccccc1)C(=O)N1CCN(c2ccccn2)CC1 (centres undefined)	inconclusive: 1 µM [inhibitor, full curve]
CCOc1ccc(CC(=O)NCc2nnc3ccc(-c4ccc(C)cc4)nn23)cc1	inconclusive: 2.82 µM [inhibitor, partial curve]

— PubChem BioAssay AID1347417 (National Center for Advancing Translational Sciences (NCATS), 2020)
